According to PubChem BioAssay AID504332 (National Center for Advancing Translational Sciences (NCATS), 2011):
Among all 350,000 compounds or so, about 31,000 (8.9%) were called active. Inconclusive means that the source gave no clear call. Such entries were picked first, then a sample of the others. The call rests on the fitted dose curve; in most records, active means well fitted inhibition curve with a large enough effect; inconclusive means small, poorly fitted or top-dose-only effect; inactive means no such curve, though single readings can be large or run the other way. Potencies beside an inconclusive call are fits to weak or partial responses and may not hold up.

Target: Histone-lysine N-methyltransferase EHMT2 (Homo sapiens) (UniProt Q96KQ7)
Test: qHTS Assay for Inhibitors of Histone Lysine Methyltransferase G9a; further: nearly all actives have a fitted effect of over 75% in size
Details: G9a H3K9 monomethylation, AlphaScreen, 2 h; activity, negative = inhibition: at 59 µM (top of the series) unless noted
Outline: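 Step 1: enzyme (final 20 nM) with compound, 15 min RT. Step 2: substrate peptide 500 nM and SAM 20 uM, 2 h RT. Step 3: anti-H3K9me1 antibody and AlphaScreen beads, 10 min, then plate read.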
On the % scale 0 is the no-effect control and ±100 the full control effect; potency means the concentration at half of the fitted maximal effect; tags describe the fitted curve by direction and shape.

Chain of UniProt Q96KQ7 (Q96KQ7 whole entry, looked up): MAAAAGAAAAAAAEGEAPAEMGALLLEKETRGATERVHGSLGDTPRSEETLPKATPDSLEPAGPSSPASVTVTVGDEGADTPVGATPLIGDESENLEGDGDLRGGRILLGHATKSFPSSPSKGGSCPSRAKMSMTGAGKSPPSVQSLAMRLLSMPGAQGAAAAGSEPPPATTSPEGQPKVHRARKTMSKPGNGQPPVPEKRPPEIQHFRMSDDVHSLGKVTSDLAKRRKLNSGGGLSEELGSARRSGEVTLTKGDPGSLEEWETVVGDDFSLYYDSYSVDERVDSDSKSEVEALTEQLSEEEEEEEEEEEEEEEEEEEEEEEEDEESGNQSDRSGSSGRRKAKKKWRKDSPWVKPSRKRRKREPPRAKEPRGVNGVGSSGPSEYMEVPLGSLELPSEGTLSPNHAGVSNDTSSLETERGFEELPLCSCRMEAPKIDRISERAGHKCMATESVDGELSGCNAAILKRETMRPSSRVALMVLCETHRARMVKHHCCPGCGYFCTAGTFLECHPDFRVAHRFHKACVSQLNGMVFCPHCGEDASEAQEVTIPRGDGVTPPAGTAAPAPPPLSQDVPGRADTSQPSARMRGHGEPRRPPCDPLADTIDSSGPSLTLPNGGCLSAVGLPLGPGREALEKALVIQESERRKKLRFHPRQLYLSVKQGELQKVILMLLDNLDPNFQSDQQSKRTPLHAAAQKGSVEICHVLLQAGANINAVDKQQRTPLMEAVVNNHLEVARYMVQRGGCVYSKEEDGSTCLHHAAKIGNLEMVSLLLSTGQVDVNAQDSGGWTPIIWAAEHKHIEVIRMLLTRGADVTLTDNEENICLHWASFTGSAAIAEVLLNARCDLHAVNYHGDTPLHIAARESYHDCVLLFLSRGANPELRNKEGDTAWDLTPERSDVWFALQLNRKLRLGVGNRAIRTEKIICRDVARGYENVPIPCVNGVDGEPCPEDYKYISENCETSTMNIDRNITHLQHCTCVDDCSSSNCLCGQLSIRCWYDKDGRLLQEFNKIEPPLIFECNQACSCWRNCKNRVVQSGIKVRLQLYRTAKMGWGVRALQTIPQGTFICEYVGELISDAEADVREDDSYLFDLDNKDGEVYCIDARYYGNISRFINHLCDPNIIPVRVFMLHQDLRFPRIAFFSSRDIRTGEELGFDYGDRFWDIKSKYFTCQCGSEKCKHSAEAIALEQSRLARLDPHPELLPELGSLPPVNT

SMILES | Potency | activity, negative = inhibition
CCOC(=O)/C(C#N)=C/c1c(N2CCN(c3cccc(Cl)c3)CC2)nc2c(C)cccn2c1=O | inconclusive: 100 µM [inhibitor, single point] | 
O=C1CC(C(=O)Nc2ccc(Br)cc2)S/C(=N\N=C\c2ccco2)N1 (centres undefined) | inconclusive: 89.1 µM [inhibitor, single point] | 
O=C(Cn1nc(-c2ccccc2)ccc1=O)NCCN1CCN(c2cccc(Cl)c2)CC1 | inconclusive: 89.1 µM [inhibitor, single point] | 
CCOC(=O)N1CCC2(CC1)C(C(=O)C13CC4CC(CC(C4)C1)C3)C2(C#N)C#N (centres undefined) |  | inactive: -32.9% [at 12.7 µM]
Cc1cc(C(F)(F)F)c(C#N)c(N2CCOCC2)n1 |  | inactive: 11.7% [at 102 µM]
CCC(CC)c1nn2c(=O)cc(COc3ccc(NC(=O)c4cccc(C)c4)cc3)nc2s1 |  | inactive: 26.1%
C=CCN1C(=O)/C(=C2/Sc3ccc(OC)cc3N2C)SC1=Nc1ccc(OC)cc1 | inconclusive: 89.1 µM [inhibitor, single point] | 
CCN1C(=O)CC(C(=O)NC)SC1=Nc1cc(Cl)c(O)c(Cl)c1 (centres undefined) | inconclusive: 89.1 µM [inhibitor, single point] | 
CCOC(=O)c1n[nH]n2c1nc(=S)c1ccccc12 | active: 10 µM | 
Cc1cc(NS(=O)(=O)c2ccc(NC(=O)COc3c(C)ccc(C)c3C)cc2)nc(C)n1 | inconclusive: 39.8 µM [inhibitor, single point] | 
COc1ccccc1NC(=O)Cn1c(CCC(=O)O)ccc1-c1ccc(C)cc1 | inconclusive: 31.6 µM [inhibitor, partial curve, poor fit] | 
O=c1nc(Nc2ccc(Br)cc2)sc2ccc([N+](=O)[O-])cc12 | inconclusive: 3.16 µM [inhibitor, single point] | 
COc1ccc(O)c(/C=N/N2CCCCC2)c1 | active: 50.1 µM | 
Cc1cc(C)c(OCCCCN2CCNCC2)c(C)c1 | inconclusive: 89.1 µM [inhibitor, single point] | 
CN1/C(=C\C(=O)Nc2cccc(Cl)c2)C(C)(C)c2ccccc21 | inconclusive: 100 µM [inhibitor, single point] | 
COc1ccc(-c2cc(C(=O)Nc3cc(Br)ccc3O)no2)cc1 |  | inactive: -1.01% [at 102 µM]
Cc1ccc(C(=O)N/C(=C/c2ccc(-c3cc(C(F)(F)F)ccc3Cl)o2)C(=O)NCc2cccnc2)cc1 | inconclusive: 3.98 µM [inhibitor, full curve, poor fit] | 
O=C(NC1=NCCS1)c1ccc(Cl)s1 |  | inconclusive: -80.5% [inhibitor]
CC(=O)Nc1ccc(NC(=O)C(C)OC(=O)CN2C(=O)C3CCCCC3C2=O)cc1 (centres undefined) | inconclusive: 89.1 µM [inhibitor, single point] | 
C=CCOC(=O)c1[nH]c2c(c1C)C(=O)CC(c1ccco1)C2 (centres undefined) | inconclusive: 31.6 µM [inhibitor, single point] | 
CCNc1ccc(Br)cc(C(=O)/C=C/c2ccc(Cl)cc2)c1=O | active: 10 µM | 
CCCCC(=O)Nc1nnc(S(=O)(=O)N(C)Cc2ccc(Cl)cc2)s1 | inconclusive: 4.47 µM [inhibitor, partial curve, poor fit] | 

SMILES | Potency | activity, negative = inhibition
C/C(=N\NC(=O)CCCNc1ccccc1)c1ccncc1 | inconclusive: 89.1 µM [inhibitor, partial curve, poor fit] | 
CC(C)CCNC(=O)NC(=O)CSc1nnc2ccccn12 |  | inactive: 4.73%
CC1CCN(C(=O)CSc2nnc(-c3cc4ccccc4cc3O)n2Cc2ccco2)CC1 | inconclusive: 79.4 µM [inhibitor, single point] | 
COC(=O)c1[nH]c2cc(OC)ccc2c1NC(=O)CN1CCN(c2cccc(C)c2)C(C)C1 (centres undefined) |  | inconclusive: -76.2% [inhibitor]
CCOc1ccc(C2C(C#N)=C(N)SC(N)=C2C#N)c(OCC)c1 | active: 14.1 µM | 
COc1ccccc1N1CCN(C(=O)COc2ccc(C)cc2Br)CC1 | inconclusive: 70.8 µM [inhibitor, partial curve, poor fit] | 
COc1cc(C(=O)NCC(c2ccco2)S(=O)(=O)c2cccs2)cc(OC)c1OC (centres undefined) |  | inactive: 15.1%
CCOC(=O)C1(Cc2cccc(OC)c2)CCN(Cc2cnc(SC)nc2)CC1 | inconclusive: 79.4 µM [inhibitor, single point] | 
Cc1cc2nc3c(=O)[nH]c(=O)nc-3n(CC(O)C(O)C(O)COP(=O)(O)O)c2cc1C (centres undefined) | inconclusive: 22.4 µM [inhibitor, single point] | 
O=C(COC(=O)c1cc([N+](=O)[O-])ccc1N1CCOCC1)Nc1ccc(Cl)cc1 | inconclusive: 35.5 µM [inhibitor, partial curve, poor fit] | 
Cc1nnsc1C(=O)N(Cc1ccccc1)C(C)C | inconclusive: 35.5 µM [inhibitor, single point] | 
CCS(=O)(=O)N1CCc2cc(C(=O)Nc3ccc(Br)cc3F)ccc21 |  | inactive: -4.4%
COc1ccc(N2CCN(S(=O)(=O)c3ccc(CC(C)C)cc3)CC2)cc1 |  | inactive: -34.5%
CCOc1ccc(OCC)c(NC(=O)CN2CCN(c3cc(C)ccc3C)CC2)c1 |  | inconclusive: -82.7% [inhibitor] [at 12.7 µM]
O=C(NCC(c1ccco1)S(=O)(=O)c1cccs1)c1ccccc1 (centres undefined) |  | inactive: 7.37%
CCc1ccc(N2C(=O)C3NN=C(C(=O)OCc4ccccc4)C3C2=O)cc1 (centres undefined) | inconclusive: 89.1 µM [inhibitor, single point] | 
O=C(c1cccs1)N1CCC(c2nc3ccccc3s2)CC1 | active: 39.8 µM | 
O=C(CN1CCN(c2ccccc2O)CC1)Nc1ccc([N+](=O)[O-])cc1Br | inconclusive: 89.1 µM [inhibitor, single point] | 
CCC(=O)Nc1cccc(NC(=S)NC(=O)c2cc3ccccc3o2)c1 |  | inactive: 4.28%
COc1ccc(-c2[nH]c(-c3ccc(O)cc3)nc2-c2ccccc2)cc1 | inconclusive: 8.91 µM [inhibitor, partial curve, poor fit] | 
O=C(N[C@@H](Cc1ccccc1)c1nc2ccccc2[nH]1)c1cc([N+](=O)[O-])ccc1Cl | active: 10 µM | 
N#C/C(=C\C=C\c1ccccc1[N+](=O)[O-])C(=O)NCc1ccccc1 | active: 39.8 µM | 
